Each structure is given as a SMILES string. In all, about 110,000 compounds were measured (“z-score”: median about -0.1, highest 2% from about 2 on). The list shows a part of the results. Activity calls are given as the source filed them.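 The calls were made as follows: active = z-score in the third read window above 3 or below -3; inactive = the rest.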

The target of the experiment is Metabotropic glutamate receptor 8 (Rattus norvegicus) (UniProt P70579). Briefly: rat mGluR8 modulators via GIRK flux, primary screen, cell-based, thallium flux, HTS (AID 488969). The settings on record: HEK293 rat mGluR8, GIRK (G protein-gated inwardly rectifying potassium channel) thallium flux, FluoZin2; at 10 µM; stronger effect = higher value; submaximal glutamate (EC20) added with thallium.
Chain of UniProt P70579 (P70579 whole entry, looked up): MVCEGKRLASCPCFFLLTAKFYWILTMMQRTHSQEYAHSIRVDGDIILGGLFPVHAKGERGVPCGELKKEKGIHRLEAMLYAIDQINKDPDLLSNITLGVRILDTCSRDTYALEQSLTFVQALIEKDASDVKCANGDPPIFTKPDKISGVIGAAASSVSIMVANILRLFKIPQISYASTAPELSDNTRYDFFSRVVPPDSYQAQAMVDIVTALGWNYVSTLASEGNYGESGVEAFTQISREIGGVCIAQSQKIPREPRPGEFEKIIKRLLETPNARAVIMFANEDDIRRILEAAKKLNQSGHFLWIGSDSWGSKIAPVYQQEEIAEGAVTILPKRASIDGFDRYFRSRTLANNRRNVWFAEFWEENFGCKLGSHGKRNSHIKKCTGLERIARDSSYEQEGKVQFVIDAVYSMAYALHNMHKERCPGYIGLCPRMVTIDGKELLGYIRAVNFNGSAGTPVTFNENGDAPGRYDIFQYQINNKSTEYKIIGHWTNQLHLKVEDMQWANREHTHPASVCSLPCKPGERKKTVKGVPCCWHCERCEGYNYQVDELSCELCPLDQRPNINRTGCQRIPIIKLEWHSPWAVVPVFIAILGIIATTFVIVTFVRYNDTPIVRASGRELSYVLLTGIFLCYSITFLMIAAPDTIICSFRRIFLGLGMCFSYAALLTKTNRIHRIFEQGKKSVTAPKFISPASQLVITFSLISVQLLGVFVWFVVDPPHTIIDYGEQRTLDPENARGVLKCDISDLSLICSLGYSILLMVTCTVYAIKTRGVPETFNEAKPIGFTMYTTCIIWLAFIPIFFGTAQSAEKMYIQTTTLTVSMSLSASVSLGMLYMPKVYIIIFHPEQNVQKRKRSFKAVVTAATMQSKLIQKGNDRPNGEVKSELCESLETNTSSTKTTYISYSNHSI
In turn, `CCOC(=O)C1=C(c2ccccc2)N=c2s/c(=C\c3cc(OC)c(OC)c(OC)c3)c(=O)n2C1c1cccs1` (stereo not given) yielded a z-score of -0.151.
On to `CCOC(=O)c1sc(NC(=O)c2ccc(Br)o2)cc1C`, for which the z-score amounted to 0.388.
As for `Cc1cc2cc(CN(Cc3cccs3)S(=O)(=O)c3ccc4c(c3)OCCO4)c(=O)[nH]c2cc1C`, the figure is -0.0967; as for `CC(C)OC(=O)/C(=C\c1ccc2c(c1)c1ccccc1n2C)NC(=O)c1ccccc1`, -0.366; as for `COc1ccccc1N(C)S(=O)(=O)c1ccc(C(=O)NCC(C)C)cc1`, 0.45.
Compound `CC1CN(C(=O)c2scc3c2OCCO3)CC(C)O1` (stereo not given) gave a z-score of 0.297.
As for `Cc1c(C(=O)Oc2ccc(F)cc2)sc2ncn(Cc3cccc(F)c3)c(=O)c12`, the z-score is -0.113.
In turn, `[N-]=[N+]=CC(=O)CNC(=O)[C@@H](Cc1ccccc1)N1C(=O)c2ccccc2C1=O` registered a z-score of -0.0201.
As for `Cc1ccc(C(=O)CCNc2ccccc2)o1`, the figure is -0.233; as for `COc1ccc(Nc2ccc(Nc3ccc(OC)cc3)nn2)cc1`, 0.0599.
For `COc1ccc(N2C(=O)CC(Sc3nc(C)cc(C)c3C#N)C2=O)cc1` (stereo not given), the z-score is -0.705.
Turning to `Cc1nc(Cl)sc1C(=O)Nc1cccc(Cl)c1C`, the z-score was -0.328.
The compound `CSc1nc(N(C)NC(=O)c2ccccc2)c2ccccc2n1` registered a z-score of -0.265.
In turn, `O=C(O)COc1ccc(-c2nnn(CC(=O)O)n2)cc1` registered a z-score of 0.352.
Under `CC(=O)NC1(c2ccc(F)cc2)CCN(C(=O)Nc2ccc(F)cc2F)CC1` stands 0.106.
`COc1ccc(CCNC(=O)C2CC(c3cccc([N+](=O)[O-])c3)=NO2)cc1` (stereo not given) had a z-score of 0.0116.
`COc1ccccc1NC(=O)Cc1noc(CN(C)Cc2cccs2)n1` returned a z-score of -0.0638.
With `COc1ccc(-c2noc(-c3ccc4c(c3)OCO4)n2)cc1`, the z-score is -0.149.
Under `O=C(O)COc1cccc2ccccc12` stands -0.112; under `CCn1c(SCC(=O)N2CCc3ccccc3C2)nc2sc(C)c(C)c2c1=O`, -0.411.
Under `Cn1c2c(c(=O)n(C)c1=O)C1(C(=O)Nc3ccccc31)C(C#N)=C(N)O2` (stereo not given) stands -0.176; under `CS(=O)(=O)N1CCc2cc(S(=O)(=O)Nc3ccc4oc5c(c4c3)CCCC5)ccc21`, -0.171.
Under `Cc1ccnc(NS(=O)(=O)c2ccc(CC(C)C)cc2)c1` stands -0.146.
Compound `Cc1cc2ncn(S(=O)(=O)N(C)C)c2cc1C` returned a z-score of -0.271.
As for `CCc1nc2cc(Cl)c(Cl)cc2[nH]1`, the figure is 2; as for `O=C(CSc1nc2c(c(=O)n1-c1ccc(F)cc1)SCC2)NCc1ccco1`, -1.12; as for `CC(C)c1ccc(-c2nc(N3CCCCC3)[nH]c(=O)c2C#N)cc1`, -0.198.
As for `O=C(Nc1ccc(Cl)cc1)c1ccc2c(c1)OCO2`, the figure is -0.277; as for `CCOC(=O)c1ccc(NC(=O)Cn2nnc(-c3ccccc3)n2)cc1`, -0.684; as for `COc1ccc(C(=O)Nc2ccc(NC(=O)c3cccs3)cc2)cc1Cl`, -0.162.
Consider `COCCn1c(SCc2nnc(-c3ccc(OC)c(OC)c3)o2)nc2sc3c(c2c1=O)CCC3`, for which the z-score is -0.833.
As for `COCCNC(=O)CSc1nc2cc(OC)c(OC)cc2c(=O)n1CCC1=CCCCC1`, the figure is -0.619; as for `Cc1ccc(C2CC(=O)C=C(O)C2)cc1` (stereo not given), -0.356; as for `CCN(CC)S(=O)(=O)c1ccc2c(c1)nc(SCC(=O)NC1CC1)n2-c1ccccc1OC`, -0.5.
As for `CC(C)c1ccc(S(=O)(=O)c2nnn3c2nc(N2CCCCC2)c2ccccc23)cc1`, the figure is -0.645; as for `CC(NC(=O)c1cc(-c2cccs2)on1)c1ccccc1` (stereo not given), -1.04; as for `O=c1cc(N2CCCC2)[nH]c(=O)n1-c1ccc(Cl)cc1`, -0.566.
As for `CC(C)NC(=O)COC(=O)c1cc(=O)[nH]c2ccccc12`, the figure is -0.16.
The compound `Cc1cc(=O)oc2cc(OC(C)C(=O)N3CCOCC3)ccc12` (stereo not given) showed a z-score of 1.51.
Under `CC(C)(C)C(=O)Nc1ccccc1C(=O)Nc1cc(Cl)ccc1Cl` stands 0.0855; under `Cc1nnc(SCCn2c(Br)nc3c2c(=O)[nH]c(=O)n3C)s1`, -0.581; under `CCCCN(CC)c1nc(-c2ccncc2)nc2ccccc12`, -0.000703.
`Cc1ccc(C(NC(N)=O)c2ccccc2C)cc1` (stereo not given) registered a z-score of -0.491.
Consider `COc1ccnc(Oc2ccc(F)cc2)c1C(=O)N/C=N/OCc1c(Cl)cccc1Cl`, for which the z-score is -0.269.
As for `COc1cc(CNc2ccccc2SC)ccc1O`, the figure is 1.58; as for `Cc1cc(C)n2nc(SCc3nnc(SCc4ccccc4)s3)nc2n1`, -0.155; as for `CCOC(=O)C(C)Sc1nnc(NC(=O)c2cccc([N+](=O)[O-])c2C)s1` (stereo not given), 0.84.
The compound `O=C(NC(=S)Nc1ncccn1)c1ccccc1Cl` returned a z-score of -0.109.
With `C=COCCNC(=O)C(=O)NC(C)C`, the z-score was -0.168.
In turn, `COc1cc(OC)c(C(=O)COc2ncnc3ccccc23)c(OC)c1` came in with a z-score of 0.381.
As to `CC(C)(C)NC(=O)CSc1ccc(C(C)(C)C)cc1`, the z-score is -0.513.
Compound `O=C1OC(c2ccccc2)/C(=C(/O)c2ccc(Cl)cc2)C1=O` (stereo not given) registered a z-score of -2.54.
Under `COc1ccc(C(=O)NC(=S)NNC(=O)c2cnccn2)cc1` stands 0.0423; under `O=C(Nc1ccc(Cl)c(S(=O)(=O)N2CCOCC2)c1)c1ccccc1-c1ccc(C(F)(F)F)cc1`, 0.095.
For the compound `COc1cccc(N2CCN(C(=O)c3[nH]c(C)c(C(C)=O)c3C)CC2)c1`, the z-score turned out to be 0.189.
As for `COc1ccc(C(=O)N2CC3(CC(c4cccc([N+](=O)[O-])c4)=NO3)C[C@H]2C(=O)NCC(N)=O)cc1` (stereo not given in full), the figure is -0.293; as for `O=C(CC12CC3CC(CC(C3)C1)C2)Nc1cccc2ncccc12`, -0.494; as for `O=C(COc1ccc(Br)cc1Br)NC(=S)N1CCCc2ccccc21`, active: 4.66.
On to `C/C(CC(=O)Nc1ccccc1[N+](=O)[O-])=N\NC(=O)COc1ccccc1C`, for which the z-score turned out to be 0.136.
Under `CC(=O)N1CCc2ccc(S(=O)(=O)N3CCN(C)CC3)cc21` stands -0.0793.
As for `O=C(c1ccccc1)c1ccc(Oc2ncccn2)cc1`, the figure is -0.321.
As for `Cc1ccc(NS(=O)(=O)c2ccc(C3CCCCC3)cc2)cc1`, the z-score was -0.718.
Regarding `CCC(C)NC(=O)/C=C1\Sc2ccccc2NC1=O` (stereo not given), the z-score is -0.156.
As for `O=C(O)CSc1nnc(CNc2ccc(Cl)cc2)n1Cc1ccccc1`, the figure is -0.133.
As for `O=C(NC(=S)Nc1ccc(N2CCCC2)cc1)c1ccccc1[N+](=O)[O-]`, the figure is 0.0592.
Under `CCn1cc(C(=O)OCc2ccccc2)c(=O)c2ccc(C)nc21` stands -0.639; under `COc1ccc(C(c2nnnn2C2CCCC2)N2CCN(c3ccccc3)CC2)cc1` (stereo not given), -0.12.
Regarding `COC(=O)c1cc(C(=O)OCC(=O)Nc2ccccc2OC(F)F)cc([N+](=O)[O-])c1`, the z-score was -0.452.
The compound `CN(C)/C=N/c1c(C#N)cnn1-c1ccccc1` registered a z-score of -0.282.
As for `Cc1nc(N2CCCCC2)c2ccsc2n1`, the figure is -0.225.

The record behind these values is PubChem BioAssay AID488969 (Vanderbilt High Throughput Screening Facility, 2010).
